Measurements: paper PMC4336329 (PLoS ONE, 2015)
Out of some 310,000 compounds screened, about 2,200 (0.71%) showed an effect of 50% or more. The effect is printed as a negative number. This is one part of the list.

Target: human ether-à-go-go-related gene (hERG) potassium channel (human, UniProt Q12809)
Assay: primary screen, population patch clamp on CHO cells stably expressing hERG

Sequence of human ether-à-go-go-related gene (hERG) potassium channel (Q12809 whole entry, looked up): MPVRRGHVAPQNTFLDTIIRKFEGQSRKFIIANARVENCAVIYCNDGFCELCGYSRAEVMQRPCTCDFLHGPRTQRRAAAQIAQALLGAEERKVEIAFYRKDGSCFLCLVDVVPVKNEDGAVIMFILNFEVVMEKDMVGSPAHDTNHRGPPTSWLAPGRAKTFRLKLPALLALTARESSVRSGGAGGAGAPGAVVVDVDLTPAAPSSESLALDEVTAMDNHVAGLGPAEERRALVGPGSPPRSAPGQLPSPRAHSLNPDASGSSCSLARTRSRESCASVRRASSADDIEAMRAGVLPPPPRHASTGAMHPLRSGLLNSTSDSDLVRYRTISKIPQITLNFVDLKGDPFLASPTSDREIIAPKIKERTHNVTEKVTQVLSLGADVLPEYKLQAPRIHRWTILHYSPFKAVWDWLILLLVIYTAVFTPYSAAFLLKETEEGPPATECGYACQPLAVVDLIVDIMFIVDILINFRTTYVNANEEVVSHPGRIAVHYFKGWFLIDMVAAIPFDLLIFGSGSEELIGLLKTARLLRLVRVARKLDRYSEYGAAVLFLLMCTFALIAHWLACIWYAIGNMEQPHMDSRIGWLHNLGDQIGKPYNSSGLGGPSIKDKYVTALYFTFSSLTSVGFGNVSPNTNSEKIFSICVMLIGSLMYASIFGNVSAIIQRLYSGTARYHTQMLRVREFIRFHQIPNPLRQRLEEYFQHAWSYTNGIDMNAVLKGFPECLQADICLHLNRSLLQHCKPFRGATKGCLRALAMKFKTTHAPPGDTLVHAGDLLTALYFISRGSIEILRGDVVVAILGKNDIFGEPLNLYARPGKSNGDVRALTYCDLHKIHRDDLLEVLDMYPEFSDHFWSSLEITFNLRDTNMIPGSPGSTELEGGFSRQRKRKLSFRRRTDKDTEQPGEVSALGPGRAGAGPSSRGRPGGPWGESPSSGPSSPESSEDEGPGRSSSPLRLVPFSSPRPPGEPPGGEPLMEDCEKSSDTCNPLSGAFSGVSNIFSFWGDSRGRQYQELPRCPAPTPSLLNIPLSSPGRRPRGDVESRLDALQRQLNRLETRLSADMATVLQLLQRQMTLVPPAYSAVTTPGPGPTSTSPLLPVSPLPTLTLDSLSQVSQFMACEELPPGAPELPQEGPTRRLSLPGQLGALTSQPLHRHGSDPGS

Row | SMILES | hERG current change (%, negative = inhibition) at 1uM [%]
1 | CC(C)CCN(C(=O)CNC(=O)c1cccs1)C(C(=O)NC1CCCCC1)c1cccnc1 (stereo not shown) | -1.18
2 | COC(=O)C(NC(=O)c1ccccc1)=C1CCCCC1 | 14.6
3 | COCc1ccc(CN2CCCC(C(=O)Nc3ccccc3-c3ccc(OC)cc3)C2)o1 (stereo not shown) | -3.55
4 | C=CCn1c(O)c(N=NC(=O)CNC(=O)c2ccco2)c2ccccc21 | 4.43
5 | O=C(O)CC12CC3CC(C1)CC(n1ncc(NCC4CCCO4)c(Cl)c1=O)(C3)C2 (stereo not shown) | 7.31
6 | O=C1CCC(C(=O)OCc2ccccc2)N1 (stereo not shown) | 15.3
7 | COc1ccc(NC(=O)CNC(=O)Cn2cnc3sc(C)c(C)c3c2=O)cc1OC | 8.41
8 | CCOC(=O)c1ccc(N2C(=O)C(O)=C(C(C)=O)C2c2ccccc2)cc1 (stereo not shown) | 13
9 | CCCCC(CCCCl)C(=O)Nc1ccccc1 (stereo not shown) | 8.59
10 | O=C(CN1CCN(c2ccccc2O)CC1)NNC(=O)c1ccc(Cl)cc1 | 6.3
11 | O=C1COc2ccc(C(=O)COC(=O)CCc3ccc(S(=O)(=O)N4CCOCC4)cc3)cc2N1 | 3.18
12 | CCCCC(=O)Nc1nnc(/C=C/c2ccc(OC)cc2)s1 | 12.4
13 | Cc1ccc(S(=O)(=O)N(C)c2ccc(C(=O)N(CC(C)C)C3CCS(=O)(=O)C3)cc2)cc1 (stereo not shown) | 0.973
14 | COc1ccc([N+](=O)[O-])cc1N(CC(O)CN(C)C)S(=O)(=O)c1ccccc1 (stereo not shown) | 8.5
15 | O=C(N/N=C/c1ccccn1)c1cc(C2CC2)[nH]n1 | 12.7
16 | CC(C)c1ccc(CCNC(=O)CSC(=S)N2CCCC2)cc1 | 20.7
17 | COCCNc1ccc(N2C(=O)C3CCCCC3C2=O)cc1[N+](=O)[O-] (stereo not shown) | 3.48
18 | CC1CCCCC12NC(=O)N(CC(=O)N1CCN(c3ncccn3)CC1)C2=O (stereo not shown) | -0.565
19 | Cc1ccc(N(CC(=O)NC(C)C)C(=O)CCC(=O)Nc2nccs2)cc1C | 2.49
20 | O=C(NCc1ccccc1Cl)c1ccc2c(=O)n(CC3CCCO3)c(=S)[nH]c2c1 (stereo not shown) | 13.5
21 | CN(CCOc1ccc(-c2ccn(S(=O)(=O)c3c(Cl)cccc3Cl)n2)cc1)c1ccccn1 | 11.3
22 | Cc1cc(C)cc(N(C(=O)c2csnn2)C(C(=O)NC(C)(C)C)c2cccnc2)c1 (stereo not shown) | -1.11

Row | SMILES | hERG current change (%, negative = inhibition) at 1uM [%]
23 | CC(=O)c1c(N2CCN(c3ccc(F)cc3)CC2)nc(=S)n(Cc2ccccc2)c1C | 4.06
24 | CCCCn1nnc(NC(=O)CCC)n1 | 2.38
25 | O=C(CCc1nc2ccccc2c(=O)[nH]1)NCC(=O)Nc1ccc(F)c(F)c1 | 10.3
26 | COc1cc(/C=C2/SC(=O)N(Cc3ccccc3Cl)C2=O)ccc1OCc1ccncc1 | 7.6
27 | COc1ccc(CC/C(=N\O)C2(O)CCCCC2)cc1 | 11.5
28 | CCN(CC(=O)Nc1ccccc1OC)C(=O)c1ccc(NS(=O)(=O)c2ccc(C(C)=O)cc2)cc1 | 3.33
29 | O=C(C[n+]1ccccc1)N/N=C/c1ccccc1C(F)(F)F.[Cl-] | 12.8
30 | O=C(Cn1cnc2c(cnn2-c2ccccc2)c1=O)c1ccc(Cl)cc1 | 11.9
31 | CC1(C)CC(=O)C2(CC3=C(CC(C)(C)CC3=O)O2)C(=O)C1 | -12.4
32 | O=C(CNC(=O)c1ccc(Cl)cc1Cl)OCC(=O)N1CCCC1 | 3.95
33 | COc1ccc(CCNC(=O)CCn2cccc2)cc1OC | 11.1
34 | CCOc1ccccc1-n1c(SCC(N)=O)nnc1-c1ccc(O)cc1 | -0.141
35 | Cc1ccc(SCCNC(=O)c2cccc([N+](=O)[O-])c2C)cc1 | 8.61
36 | O=C(Nn1cnc2ccccc2c1=O)c1ccccc1F | -1.5
37 | COc1ccc(OC)c(S(=O)(=O)N2CCCC2C(=O)N2CCc3ccccc3C2)c1 (stereo not shown) | -6.88
38 | S=c1[nH]nc(-c2ccco2)n1/N=C/c1cccs1 | 19.2
39 | Cc1onc(-c2c(F)cccc2Cl)c1C(=O)Nc1nccs1 | 6.96
40 | CCn1c(SCC(=O)Nc2ccccc2N2CCCCC2)nc2c1c(=O)n(C)c(=O)n2C | 1.86
41 | O=C(NC(=S)N1CCOCC1)c1ccccc1Cl | 15.4
42 | CCOC(=O)c1c(-c2ccc(C)cc2)csc1NC(=O)CCN1CCOCC1 | 6.99
43 | CCCCn1c(N)c(N(CCOC)C(=O)COC(=O)COc2cc(C)c(Cl)cc2C(C)C)c(=O)[nH]c1=O | 4.04
44 | Cc1ccc(N(C(C)C(=O)O)S(=O)(=O)c2cccnc2)cc1 (stereo not shown) | 14.7

Row | SMILES | hERG current change (%, negative = inhibition) at 1uM [%]
45 | CCCOc1ccc(Cc2c(O)nc(SC)[nH]c2=O)cc1C | 14.8
46 | Nc1nc(SCC(=O)Nc2cc(S(=O)(=O)N3CCOCC3)ccc2Cl)n[nH]1 | 9.37
47 | O=C(Nc1ccc2c(c1)nc1n2CCOC1)c1ccccc1 | 5.91
48 | OC(CN1CCOCC1)C12CC3CC(CC(C3)C1)C2 (stereo not shown) | 8.31
49 | O=C(NCc1cccnc1)c1nc(-c2cccs2)no1 | 2.19
50 | CC(C)n1cnc2c(Nc3ccc(C(=O)O)cc3)nc(Cl)nc21 | 16
51 | CC(OC(=O)CCc1nc2ccccc2c(=O)[nH]1)C(=O)Nc1ccc2c(c1)OCO2 (stereo not shown) | 14.8
52 | Cc1nc(C)n(CC(C)C(=O)N2CCN(S(=O)(=O)c3ccccc3)CC2)n1 (stereo not shown) | 13.5
53 | COC(=O)CCCC1=CC2=C(c3ccccc3)C(=O)C(C)(OC(=O)C3CCCC3)C(=O)C2=CN1Cc1ccc2c(c1)OCO2 (stereo not shown) | 15.3
54 | CCC(=O)Nc1cccc(SC)c1 | 22
55 | O=c1c2ccccc2nc2ccc(N3CCOCC3)nn12 | 0.277
56 | COc1ccc2oc(=O)c(-c3nc(C)cs3)cc2c1 | 4.92
57 | O=C(CSc1nc(-c2ccc(F)cc2)cs1)NC(=O)NCc1ccco1 | 4.13
58 | Cc1ccccc1-n1c(SCC(=O)Nc2ccc3c(c2)OCO3)nnc1-c1ccccn1 | -9.48
59 | CC(=O)N1c2ccc(S(=O)(=O)NCC3CCC(C(=O)Nc4cccc(C)n4)CC3)cc2CC1C (stereo not shown) | -5.64
60 | Cc1c(C(=O)NNC(=O)Nc2ccc([N+](=O)[O-])cc2)oc2ccccc12 | 14.2
61 | CCCNC(=O)Cc1ccsc1 | 14.4
62 | CCOC(=O)Cc1c(C)nc2cc(C)nn2c1C | 6.15
63 | COc1ccc(Cn2c(=O)[nH]c3cc(C(=O)NC4CCN(Cc5ccccc5)CC4)ccc32)cc1 | 13.4
64 | CCOc1ccc(NC(=S)N2CCC(NC(=O)c3ccccc3)CC2)cc1 | -3.48
65 | CC1(C)CC(NC(=O)c2ccccc2F)CC(C)(C)N1 | 6.14
66 | CCN1C(=NCCOC)N[C@@H](c2cccs2)C(C(=O)OC)=C1C | -0.789

Row | SMILES | hERG current change (%, negative = inhibition) at 1uM [%]
67 | CCOC(=O)/C=C1/N(C)c2ccccc2C1(C)C | 3.52
68 | O=[N+]([O-])c1cc(/C=N/O)ccc1N1CCCC1 | 12.9
69 | O=C(Nc1nc(-c2ccco2)c(-c2ccco2)s1)C1CCC1 | 2.76
70 | COc1cc(C(=S)N2CCOCC2)cc(OC)c1OS(=O)(=O)c1ccc(Cl)cc1 | 13.4
71 | COc1ccc(N2C(=O)c3ccccc3NC23CCCC3)cc1 | 12.7
72 | CC1=C(C(N)=O)C(c2ccc(F)cc2)n2nc(CCCO)nc2N1 (stereo not shown) | 17.8
73 | COC(=O)c1ccccc1NC(=S)N(Cc1ccc2c(c1)OCO2)Cc1cc2ccc(C)cc2[nH]c1=O | 6.91
74 | O=C(Oc1cc(-c2ccccc2)no1)c1cccc(C(F)(F)F)c1 | 15
75 | O=C1c2ccccc2-c2ncnc3c(N4CCOCC4)cc(N4CCOCC4)c1c23 | -13.3
76 | Cc1cccn2c(=O)c3cc(C(=O)N4COCC4(C)C)sc3nc12 | -0.626
77 | CN(CC(=O)Nc1ccc(F)cc1)C(=O)c1cccc(S(=O)(=O)N2CCN(c3ccccc3)CC2)c1 | 6.57
78 | COc1ccc(C(=O)NC2CCSC2=O)cc1 (stereo not shown) | 8.09
79 | Cc1cc(F)ccc1S(=O)(=O)Nc1ccccc1C(=O)N1CCCC1 | 7.17
80 | Cc1ccc(Nc2nnc(SCC(=O)Nc3cc(C(=O)O)ccc3C)s2)c(C)c1 | 10.4
81 | COc1ncnc(-c2ccccc2)c1-c1ccccc1 | 15.9
82 | O=C1C2C3C=CC(C4CC34)C2C(=O)N1/N=C/c1c[nH]c2ccccc12 (stereo not shown) | 12.6
83 | O=C(CN1CC=C(c2ccccc2)CC1)Nc1c(Cl)cccc1Cl | 4.3
84 | O=C(NCC1CCCO1)C(=O)N/N=C/c1cccc(Cl)c1 (stereo not shown) | 17.1
85 | N#Cc1ccc(Oc2cccc3cccnc23)c([N+](=O)[O-])c1 | 3.42
86 | C=CCN1C(=O)C(Cc2ccc(Br)cc2)S/C1=N\N=C\c1ccco1 (stereo not shown) | 4.06
87 | Cc1ccccc1-c1nc(S(=O)(=O)c2ccc(Br)cc2)c(NCc2cccnc2)o1 | 2.97
88 | Cc1ccc(OCC(=O)NCCN2CCN(C(=O)COc3ccc(C)cc3)CC2)cc1 | -21.2
